# Test results published in ChEMBL document CHEMBL4888484, “Replenishing the malaria drug discovery pipeline: Screening and hit evaluation of the MMV Hit Generation Library 1 (HGL1) against asexual blood stage Plasmodium falciparum ,using a nano luciferase reporter read-out” (2022).
# The whole screen tested about 150,000 compounds, of which about 540 (0.36%) showed an effect of 50% or more. The list shows a part of the results.
# Test system: Plasmodium falciparum
# Experiment: Primary screen in NF54 nanoGlo assay, in single point, at 2uM, 72h; a lower Z score goes with more inhibition
# Type: functional, Erythrocyte
# Settings: timepoint 72 hour
SMILES,% Inhibition,Z score
CCn1cnnc1CNS(=O)(=O)C1CC1c1cccc(F)c1 (stereo not drawn),-2%,0.18
COc1cc(C(=O)O)ccc1NC(=O)[C@H]1CC1(C)C,-14%,1.46
CCOc1ccc(-c2[nH]c3c(c2-c2ccc(OC)cc2)c(=O)n(C)c(=O)n3C)cc1,5%,-0.72
CC(C)(C)OC(=O)NC1CCC(=O)CC1,-7%,0.98
FC(F)(F)c1ccccc1CNc1ccc2c(c1)OCO2,-8%,1.52
CN1CCCN(c2cnn(Cc3ccc4ccccc4n3)c(=O)c2)CC1,-6%,0.81
O=C(NCc1ccccn1)Nc1ccn(-c2ccccc2)n1,1%,-0.17
Cc1c(CN[C@@H](CC(C)C)C(=O)OC(C)(C)C)cc(C#N)n1C,-7%,0.61
C[C@H](OC(=O)COC(C)(C)C)c1ccccn1,-5%,0.42
CN(C)C(=O)C1CCN(C(=O)Nc2nnc(CC3CCCC3)s2)CC1,-3%,0.52
CCN(CC(=O)c1c[nH]c(C(=O)N2CCCC2)c1)Cc1ccco1,-14%,1.27
Cc1ccc(C(=O)N[C@@H](CC(C)C)c2nnc3ccccn23)c(-n2cnnn2)c1C,-4%,0.52
Cc1cc(C(=O)N2CC(Oc3ccccc3-c3nc(-c4cnccn4)no3)C2)nn1C,-22%,2.51
Cc1ccc(C)c(-n2cnc3cc(C(=O)N4C5COCC4C5)ccc32)c1,-3%,0.43
Cc1nc(NC2CCC(NC(=O)C3CCCC3)CC2)c2cnn(-c3cccc(Cl)c3)c2n1 (stereo not drawn),4%,-0.41
N#Cc1ccccc1-c1nc2cc3[nH]c(=O)[nH]c3cc2[nH]1,4%,-0.79
Cn1c(=O)c2c(c(-c3ccccc3)cn2C)n(CC(=O)NC2CCCC2)c1=O,-7%,1.02
CC(C)Cn1ncnc1CN[C@H]1CCc2c(O)cccc21,-5%,0.55
Cc1sc(NC(=O)COCC(=O)O)c(C(=O)NCc2cccnc2)c1-c1ccccc1,2%,-0.33
Cc1cc(C(=O)NC2CCC(O)CC2)c(C)n1-c1ccc2c(c1)OCCO2 (stereo not drawn),-3%,0.47
CC(C)(O)CCN1CCO[C@H](c2noc(-c3ccccc3)n2)C1,-6%,0.79

SMILES,% Inhibition,Z score
Cc1nc[nH]c1CN1C[C@H]2CC[C@@H](C1)N(C(=O)CCC(=O)c1ccccc1)C2,-6%,0.91
NC(=O)c1ccc(N2CCC(c3nc(C(F)(F)F)cs3)CC2)nn1,-11%,1.35
Cc1ccc(C(=O)N/C(=N/c2cc(C)cc(C)c2)N2CCN(Cc3ccccc3F)CC2)cc1,-1%,0.24
Cc1nn(C)c(C)c1C1OCCC1CNCc1cnn2ccccc12 (stereo not drawn),-4%,0.63
O=C(CCn1cnccc1=O)N1CCCC12CCCCC2,-15%,2
O=C1[C@H](Cc2ccccc2)NC2(CCN(S(=O)(=O)c3cccc4cccnc34)CC2)N1CCc1ccccn1,-17%,1.51
C=CC(C)(CC)C(=O)N1CCN(CCOCC)C(C)C1 (stereo not drawn),-3%,0.37
Cc1cc(N2C(=O)N(C)C(C)(C)C2=O)nn1C(C)C,-8%,1.46
CCC(C)(C)c1cn(CCN2CC3CCC(C2)O3)nn1,6%,-0.78
O[C@@H](CN1CCCCCC1)c1ccccc1,24%,-2.71
O=C(Cn1ncc2c1C[C@@H](O)CC2)N1CCN(c2ccccc2F)CC1,9%,-1.22
CCC(=O)N1CCc2cc(-c3ccc(C(=O)N4CCN(Cc5ccccc5)CC4)cc3)ccc21,0%,-0.03
CN(C)CC1CCc2ccccc2N1C(=O)C1CC2CCCC(C1)C2=O (stereo not drawn),-5%,0.66
Cc1cc(CC(=O)N[C@@](C)(CC(C)C)c2cccc(Br)c2)no1,2%,-0.19
COc1ccccc1N(C)CC(=O)Nc1nc(C)c(C)s1,3%,-0.58
Cc1cccc(-c2noc(CS(=O)(=O)c3ccc(Cl)s3)n2)c1,-11%,0.95
CN(C)c1cnc(C(=O)N2CCCC[C@H]2c2cnn(C)c2)cn1,0%,0.07
Cc1cc(S(=O)(=O)N[C@H](c2cccnc2)C2CC2)c(C)o1,-4%,0.43
CC1(C)C[C@H](N)CN(C(=O)OC(C)(C)C)C1,-6%,0.58
O=C(N[C@@H](Cc1ccncc1)C1CC(O)C1)c1cnn(Cc2ccccc2)c1 (stereo partly drawn),-21%,2.11
COc1c(C)cc(S(=O)(=O)N[C@H]2CCOC[C@@H]2OC)c(C)c1C,-13%,2.38

SMILES,% Inhibition,Z score
O=C(c1cccc(Br)c1)N1CCN(c2ncc(F)cn2)C(=O)C1,12%,-1.52
O=C1NC(c2ccc(-c3ccc(Cl)cc3Cl)o2)C(C(=O)c2ccc(F)cc2)C(O)(C(F)(F)F)N1 (stereo not drawn),-9%,1.67
O=C(c1cc(O)ncn1)N1CCN(Cc2ccccc2)CC1,-14%,2.42
O=C(NCc1ccc2c(c1)CCN2C(=O)c1ccncc1)c1ccccc1F,-14%,1.32
Cc1noc(NC(=O)c2cccc(NS(=O)(=O)c3ccc4c(c3)OCCO4)c2)n1,-4%,0.52
C[C@H](Oc1ccc(N(C)C(N)=O)cc1)c1nc(-c2cccs2)no1,-2%,0.3
CCCCc1c(C)nc(N)nc1N1CCO[C@@H](CCO)C1,-8%,1.08
CC(COc1ccc(F)cc1)NC(C)c1cccnc1 (stereo not drawn),6%,-0.83
CC(C)C[C@@H]1N[C@H](C(=O)NCc2ccccc2)Cc2cn(Cc3ccncc3)c3cccc1c23,0%,0.06
O=C(Nc1ccccc1F)[C@@H]1Oc2ccccc2NC1=O,-14%,1.68
CCOc1cccc(CN[C@@H](C)C2CCN(CC(F)(F)F)CC2)n1,-5%,0.79
Cc1nc(NC(=O)[C@@H]2CNC(=O)N2)sc1Cc1ccccc1F,-7%,0.61
c1ccc(-c2nc(-c3cn(-c4ccccc4)nc3-c3cccs3)[nH]c2-c2ccccc2)cc1,-9%,1.73
CC(C)Oc1nccnc1N[C@@H](C)Cn1ncc2ccccc2c1=O,7%,-0.68
Cc1noc(C)c1CCC(=O)N(Cc1cnn(C)c1)C(C)C,-15%,1.93
CCNC(=O)N1CCCCCNC(=O)[C@@H]2CCC[C@@H]21,0%,0.03
O=C(CCCC(=O)Nc1ccccn1)NCCc1ccc(Cl)cc1,-6%,1.07
O=S(=O)(c1ccccc1)N1CCn2nc(CN3CCC[C@H](O)C3)cc2C1,5%,-0.62
CC(C)C1CC(NCCN(C)C)CC(C(C)C)O1 (stereo not drawn),12%,-1.59
O=C1CC[C@H](C(=O)NC2CC3CCC2C3)N1 (stereo partly drawn),-8%,1.12
CC(=O)Nc1ccc(S(=O)(=O)N2C[C@@H]3C[C@H](C2)c2c(-c4ccccc4)ccc(=O)n2C3)cc1,1%,-0.09

SMILES,% Inhibition,Z score
CC(C)CCOC1CCN([C@@H](C)C(N)=O)CC1,-11%,1.03
Cc1cc(-c2cccc3c2CCNC3)ccc1C(=O)O,-14%,2.66
C[C@H]1COc2ccc(C(=O)N3CCCC3)cc2CN1C(=O)CC1CCCCC1,-9%,1.59
O=C(Nc1ccc2c(c1)CCC2)N1CCC[C@H](O)C1,-3%,0.54
CC1c2cc(F)cc(F)c2CCN1C(=O)CC1COCCN1 (stereo not drawn),-5%,0.59
Cc1cnc(CNS(=O)(=O)Cc2ccc(Cl)cc2C#N)o1,30%,-3.43
COCc1cc(C(=O)NC2CCOC(CC(C)C)C2)no1 (stereo not drawn),-4%,0.39
COCCN(Cc1nccs1)C(=O)Nc1cc(F)c2c(c1)NC(=O)CO2,-15%,1.55
O=C(NC1CCCC1)c1cc(F)ccc1-n1ccnc1,-3%,0.3
CC1CCCC(NC(=O)C(=O)N2CCNC(=O)C2)CC1 (stereo not drawn),2%,-0.28
C[C@@H](Cc1nnc(NC(=O)Cc2ccc(Br)cc2)s1)c1ccccc1,-13%,2.42
CCOC1CC(O)(CNC(=O)c2csnc2C)C1(C)C (stereo not drawn),-10%,1.8
O=c1c2cc(-c3ccccc3)nn2ccn1Cc1noc(CN2CCCCC2)n1,-1%,0.13
COCC(=O)N1CCc2[nH]nc(C(=O)N3CCN(c4cccc(Cl)c4Cl)CC3)c2C1,8%,-1.1
COc1cccc(CNC(=O)CCn2ccnc2)c1,8%,-1.33
Cc1cnc(C)n1C[C@H]1CCN(C(=O)COCc2ccccc2)C1,-6%,0.75
Cc1ccc(C2(NS(=O)(=O)N3CCCC3)CC2)cc1,-4%,0.65
CCCn1cc(NCC(C)(C)S(C)(=O)=O)cn1,-1%,0.11
COc1ccc(CNC(=O)[C@H](C)n2ccc3cc(S(=O)(=O)N4CCCC4)ccc32)cc1OC,36%,-5.17
CCCc1noc(CNC2(c3ccc(OC)cc3)CCOCC2)n1,-11%,1.49
O=C(c1onc2c1CCCC2)N1CC[C@@]2(CCCN(CC3CCC3)C2=O)C1,-12%,2.26
